Data published in patent publication US5190919A, “Antihemostatic Factor VII peptides” (Board of Regents, The University of Texas System, priority 1989, dated 1993).
“Also recorded” adds a separate entry of the source. Where two headings read alike, the source gives them in different places. Part of at least one peptide drawing is inferred or uncertain, most often the ends. Some compounds share one wording; it may come from a single statement. For some of these results: At least one structure is not confirmed: it was looked up by name or label, or the drawing left a doubt. Ends that are not written are not given here.

Columns and labels:
[1] = test system: Factor VII-tissue factor complex; assay: Rate of Factor X activation, two-stage chromogenic (amidolytic) assay with purified proteins; type: biochemical, human; details: for Factor Xa Formation (% of Control Rate): 200 μM of each synthetic peptide, amidolytic assay, purified proteins; for Inhibition of the rate of Factor Xa formation relative to control reactions: 200 μM peptide; for Ki: from Dixon plots of the rate of Factor Xa formation, three Factor X concentrations, read-out: Ki, peptide inhibition constants for Factor VII activity; for Dose-dependent inhibition of the rate of Factor Xa formation / Factor VII activity: result in words
Description: (§1) 3. Rate of Factor X activation: The effect of the synthetic peptides on the rate of activation of Factor X was analyzed in a purified system employing chromogenic assays. For the inhibition experiments, peptides were diluted in 20 mM Tris-HCl, 150 mM NaCl, pH 7.4 (TBS) and preincubated with 10 microliters each of Factor X (180 nM) and tissue factor (0.075%) at 37 degrees Centigrade in a total volume of 140 microliters adjusted with TBS containing 1% bovine serum albumin (BSA) and 5 mM CaCl2. After 30 minutes, Factor X activation was initiated by the addition of 10 microliters of Factor VII (2 pM). At defined timed intervals, 20 microliter aliquots were removed and added to a microtiter plate containing 80 microliters of 50 mM Tris-HCl, 225 mM NaCl and 10 mM EDTA, pH 8.2. Following sample collection, 50 microliters of 0.6 mM chromogenic substrate was added and the rate of change in the absorbance at 405 nm was monitored for 10 minutes using a Vmax Kinetic Microplate Reader (Molecular Devices, Inc., Palo Alto, Calif.). The rate of Factor Xa formation was calculated from the slope of linear regression of data plotted as a function of the initial rate of hydrolysis (OD405 /min) versus time and expressed as OD405 /min^2.
(§2) 5. Inhibition assays: The inhibition of Factor VII function was determined in the two-stage chromogenic assay described in Example I-A, 3. The peptides were initially screened at 200 μM added concentration. To determine the concentration of peptide required to inhibit the rate of Factor X activation by 50% (CI50), peptides at various concentrations or buffer (TBS-BSA) were incubated with their respective complexes. Following the addition of Factor VII, the rate of Factor Xa generation was determined and the percent of Factor X activation in the presence of different concentrations of Factor VII peptides relative to buffer controls was calculated. Analogous determinations of the CI50 values were measured in the specific coagulation assay outlined above. Factor VII activity in the presence of varying concentrations of peptide was measured by comparing the clotting times to a standard curve constructed from the log of the clot time versus the log of Factor VII concentration in the same incubation mixtures described for the peptides.
(§3) Kinetic analysis of multiple inhibitors known to be noncompetitive in nature was conducted holding the concentration of the first inhibitory peptide constant and varying the concentration of a second inhibitory peptide. The analysis for mutual exclusivity of the inhibitory peptides employed the methods adapted from Segel (12). […] Regression lines which intersect with one another indicate mutual non-exclusivity of one peptide to another, i.e. tested peptides act as regions which are spatially separate from one another.
(§4) Factor VII function results from a two-step mechanism. First, Factor VII must associate with tissue factor in order to form the active macromolecular complex and second, Factor VII activity within the macromolecular complex can be measured by the conversion of substrate to product, e.g. activation of Factor X. The peptides of the present invention were tested for their ability to inhibit Factor X activation by employing the two-stage chromogenic assay described in Example I-A, 3. Inhibition of Factor X activation measured by this assay detects both of the steps stated for Factor VII function. To verify the inhibitory effect of the synthetic peptides, each of the components were titrated. […] Factor X was titrated against the preformed Factor VII-tissue factor complex in the presence of at least 10^4 molar excess of each peptide. Selected peptides were inoubated with tissue factor and Factor X for 30 minutes at […] before the addition of Factor VII. This preincubation time was sufficient for the peptides to reach equilibrium with the target protein (13). […]

[2] = target: T1, tissue factor expressing bladder carcinoma cell line, J82 (Homo sapiens, UniProt P13726); assay: Inhibition of Factor VII binding to a tissue factor-expressing cell line (J82), read as rate of Factor Xa formation; type: cell-based; details: peptide 30 min at 37 degrees, then Factor VII, wash, Factor X (FIG. 9)
T1 construct: the tissue factor expressing bladder carcinoma cell line, J82; endogenous in cells; host or cells: J82 human bladder carcinoma cells

[3] = target: T2, Factor VII-tissue factor complex (Homo sapiens, UniProt P08709+P13726); assay: Rate of Factor X activation, two-stage chromogenic (amidolytic) assay with purified proteins; type: biochemical; details: Dixon plots, 193-203 at 0, 14, 28 μM (FIG. 6A); parallel regression lines
T2 construct: Factor VII/VIIa (6), Factor X (7), and Factor Xa (8) were isolated as previously reported; Tissue factor was prepared from human brain as described (9); from tissue; host or cells: Tissue factor from human brain (gift of Dr. J. H. Morrissey)
Description: as §1, §2, §3, §4

[4] = target: T3, Factor VII (Homo sapiens, UniProt P08709); assay: Two-stage clotting assay specific for Factor VII function in Factor VII-depleted plasma; type: biochemical; details: for Inhibition of clot formation: varying peptide concentrations (FIG. 7)
T3 construct: Factor VII/VIIa (6), Factor X (7), and Factor Xa (8) were isolated as previously reported
T3 sequence (P08709 61-466): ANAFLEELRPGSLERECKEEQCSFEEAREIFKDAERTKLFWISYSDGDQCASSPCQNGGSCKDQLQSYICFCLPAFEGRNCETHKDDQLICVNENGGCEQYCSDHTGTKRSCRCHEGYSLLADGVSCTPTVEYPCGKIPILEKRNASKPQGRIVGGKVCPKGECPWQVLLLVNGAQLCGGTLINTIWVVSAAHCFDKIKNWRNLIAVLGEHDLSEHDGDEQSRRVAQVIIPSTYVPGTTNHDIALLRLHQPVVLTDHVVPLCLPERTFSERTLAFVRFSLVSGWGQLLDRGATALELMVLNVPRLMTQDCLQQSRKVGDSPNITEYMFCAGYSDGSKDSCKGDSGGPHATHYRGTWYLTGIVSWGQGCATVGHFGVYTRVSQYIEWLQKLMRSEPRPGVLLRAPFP
Description: 4. Coagulation assays: The effect of the synthetic peptides and antibodies to them on Factor VII coagulation activity was determined using two-stage clotting assays specific for Factor VII function.
Synthetic peptides were individually preincubated with 20 μl each of plasma immunochemically depleted of Factor VII and 0.25% tissue factor at 37 degrees Centigrade in a total volume of 190 μl adjusted with TBS containing 1% BSA and 5 mM CaCl2. At the end of 30 minutes, coagulation was initiated by the addition of 10 μl of Factor VII (1 nM). The time for clot formation was measured using a Fibrometer (BBL, Cockesysville, Md.). Factor VII activity in the presence of varying concentrations of peptide was quantitated by comparing their clotting times to a standard curve constructed from the log of the clot time versus the log of a known amount of Factor VII in the same reaction mixture without added peptide.
as §2, with “To determine the concentration of peptide required to inhibit the rate of Factor X activation by 50% (CI50), peptides at various concentrations or buffer (TBS-BSA) were incubated with their respective complexes.” left out
Based on the results of the chromogenic assays, three peptides, 208-229, 285-305 and 276-390, were selected for further study for their ability to inhibit a coagulation-based assay designed to measure Factor VII activity. […] After Factor VII was added, the time of clot formation was determined and quantitated.

[5] = target: T4, Factor Xa (Homo sapiens, UniProt P00742); assay: Direct inhibition of Factor Xa amidolytic activity (control experiments, Dixon plots); type: biochemical
T4 construct: circulating Factor X and cleaves it to form a second source of Factor Xa

[6] = Table 2, read-out: Concentration for 50% Inhibition, Rate of Factor Xa Formation
[7] = Table 4, derivatives of inhibitory peptides, read-out: CI50, concentration of peptide inhibiting the rate of Factor Xa activation by 50%

T4 sequence (P00742 235-488 limits assumed): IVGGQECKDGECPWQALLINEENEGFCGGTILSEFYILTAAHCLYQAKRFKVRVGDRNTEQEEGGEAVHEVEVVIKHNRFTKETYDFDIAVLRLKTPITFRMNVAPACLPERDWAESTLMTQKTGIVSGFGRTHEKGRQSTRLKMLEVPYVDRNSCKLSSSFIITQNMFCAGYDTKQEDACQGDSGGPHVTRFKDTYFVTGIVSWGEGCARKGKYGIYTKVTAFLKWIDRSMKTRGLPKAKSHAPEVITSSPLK
T4 sequence (P00742 41-179 limits assumed): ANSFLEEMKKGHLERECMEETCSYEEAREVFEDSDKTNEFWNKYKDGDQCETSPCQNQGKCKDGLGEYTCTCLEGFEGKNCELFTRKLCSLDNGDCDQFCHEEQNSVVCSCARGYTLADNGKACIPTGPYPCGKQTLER
T2 sequence (P13726 33-295, one chain of several): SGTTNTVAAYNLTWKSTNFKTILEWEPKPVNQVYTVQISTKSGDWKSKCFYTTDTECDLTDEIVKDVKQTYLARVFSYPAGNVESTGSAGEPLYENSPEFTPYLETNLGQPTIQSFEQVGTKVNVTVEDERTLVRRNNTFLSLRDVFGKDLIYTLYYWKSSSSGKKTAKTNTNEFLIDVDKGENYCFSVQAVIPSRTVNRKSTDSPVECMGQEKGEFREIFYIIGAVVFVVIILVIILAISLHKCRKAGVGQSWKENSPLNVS
T1 sequence (P13726 33-295): as the sequence (P13726 33-295, one chain of several) above

AGYSDGSKDSC-NH2 [Peptide 330-340, AGYSDGSKDSC]
Factor Xa Formation (% of Control Rate) [1]: 62 % of Control Rate
Inhibition of the rate of Factor Xa formation relative to control reactions [1]: about 40%
IC50 [1, 6]: 285 µM
Ki [1]: 247 ± 13.9 µM
Dose-dependent inhibition of the rate of Factor Xa formation / Factor VII activity [1]: significantly inhibit the rate of Factor Xa formation in a dose-dependent manner

AQVIIPSTYVPGTTNHDIGC-NH2 [Peptide 226-243, AQVIIPSTYVPGTTNHDI(GC)]
Factor Xa Formation (% of Control Rate) [1]: 86 % of Control Rate
Profile of rate of Factor Xa generation versus Factor X concentration compared with buffer control ([1]; 248 μM peptide (FIG. 1)): No difference

ATVGHFGVYTR [Peptide 369-379, ATVGHFGVYTR]
IC50 [1, 7]: 230 µM

AVLGEHDLSEHDG [Peptide 206-218, AVLGEHDLSEHDG]
Inhibition of the rate of Factor Xa formation on J82 cells [2]: inhibited the rate of Factor Xa formation in a dose-dependent manner
IC50 [1, 7]: 52 µM

CFDKIKNWRNLIAVLGEHDLS-NH2 [Peptide 194-214]
Factor Xa Formation (% of Control Rate) [1]: 5 % of Control Rate
Inhibition of the rate of Factor Xa formation relative to control reactions [1]: 95%
IC50 [1, 6]: 68 µM
Ki [1]: 61.1 ± 4.7 µM
Dose-dependent inhibition of the rate of Factor Xa formation / Factor VII activity [1]: significantly inhibit the rate of Factor Xa formation in a dose-dependent manner

CGLEKRNASKPQ-NH2 [Peptide CG + 141-150, (CG)LEKRNASKPQ]
Factor Xa Formation (% of Control Rate) [1]: 100 % of Control Rate

DKIKNWRN [Peptide 196-203, DKIKNWRN]
IC50 [1, 7]: 196 µM

DKIKNWRNLIA [Peptide 196-206, DKIKNWRNLIA]
IC50 [1, 7]: 185 µM

GEHDLSEHDGDEQ [Peptide 209-221, GEHDLSEHDGDEQ]
Mixed inhibition, mutual exclusivity of peptides 209-221 and 285-305 ([1]; Dixon plots, 285-305 at 0, 1.5, 3.0 μM (FIG. 6B), lines intersect above abscissa): lack of mutual exclusively
IC50 [1, 7]: 62 µM
Mixed inhibition, mutual exclusivity of peptides 209-221 and 193-203 [3]: mutually exclusive

GQLLDRGATA [Peptide 285-294, GQLLDRGATA]
IC50 [1, 7]: 15 µM

GQLLDRGATALELMVLNVPRLGC-NH2 [Peptide 285-305]
IC50 ([4]; Table 2, Factor VII-depleted plasma, tissue factor, read-out: Concentration for 50% Inhibition, VIIa Coagulant Activity): 10 µM

LGEHDLSEHDGDEQSRRVAQVIGC-NH2 [Peptide 208-229]
Factor Xa Formation (% of Control Rate) [1]: 0 % of Control Rate
Inhibition of the rate of Factor Xa formation relative to control reactions [1]: completely inhibited
IC50 [1, 6]: 48 µM
Ki [1]: 44.3 ± 5.6 µM
Dose-dependent inhibition of the rate of Factor Xa formation / Factor VII activity [1]: significantly inhibit the rate of Factor Xa formation in a dose-dependent manner
Inhibition of clot formation [4]: inhibited clot formation in a dose-dependent manner

LLVNGAQLC-NH2 [Peptide 170-178, LLVNGAQLC]
Factor Xa Formation (% of Control Rate) [1]: 56 % of Control Rate
Inhibition of the rate of Factor Xa formation relative to control reactions [1]: about 40%
IC50 [1, 6]: 218 µM
Ki [1]: 215 ± 11.8 µM
Dose-dependent inhibition of the rate of Factor Xa formation / Factor VII activity [1]: significantly inhibit the rate of Factor Xa formation in a dose-dependent manner

LQKLMRSEPRPGVLLRAPFP-NH2 [Peptide 387-406]
Factor Xa Formation (% of Control Rate) [1]: 98 % of Control Rate

LRLHQPVVLTDHVVPLC-NH2 [Peptide 246-262, LRLHQPVVLTDHVVPLC]
Factor Xa Formation (% of Control Rate) [1]: 83 % of Control Rate

PERTFSERTLA [Peptide 264-274, PERTFSERTLA]
IC50 [1, 7]: 260 µM

PHATHYRGTWYLTGIGC-NH2 [Peptide 347-361, PHATHYRGTWYLTGI(GC)]
Factor Xa Formation (% of Control Rate) [1]: 0 % of Control Rate
Inhibition of the rate of Factor Xa formation relative to control reactions [1]: completely inhibited
IC50 [1, 6]: 34 µM
Ki [1]: 35.2 ± 6.1 µM
Mode of inhibition of Factor Xa ([5]; Dixon plots): competitive; also recorded: competitively inhibit
Direct inhibition of Factor Xa amidolytic activity ([5]; control experiments): inhibited Factor Xa amidolytic activity directly

RGATALELMV [Peptide 290-299, RGATALELMV]
IC50 [1, 7]: 225 µM

RTKQFWISYSDGDQ [Peptide 36-49, RTKQFWISYSDGDQ]
IC50 [1, 7]: 6 µM

SEHDGDEQSRRVA [Peptide 214-226, SEHDGDEQSRRVA]
IC50 [1, 7]: 165 µM

SKPQGRIVGGK-NH2 [Peptide 147-157, SKPQGRIVGGK]
Factor Xa Formation (% of Control Rate) [1]: 100 % of Control Rate

SYSDGDQ [Peptide 43-49, SYSDGDQ]
IC50 [1, 7]: 220 µM

VYTRVSQYIEWLQKL-NH2 [Peptide 376-390, VYTRVSQYIEWLQKL]
Factor Xa Formation (% of Control Rate) [1]: 0 % of Control Rate
Inhibition of the rate of Factor Xa formation relative to control reactions [1]: completely inhibited
IC50 [1, 6]: 58 µM
Ki [1]: 57.8 ± 8.3 µM
Dose-dependent inhibition of the rate of Factor Xa formation / Factor VII activity [1]: significantly inhibit the rate of Factor Xa formation in a dose-dependent manner
Inhibition of clot formation [4]: inhibited clot formation in a dose-dependent manner

YSDGDQC-NH2 [Peptide 44-50, YSDGDQC]
Factor Xa Formation (% of Control Rate) [1]: 0 % of Control Rate
Inhibition of the rate of Factor Xa formation relative to control reactions [1]: completely inhibited
IC50 [1, 6]: 53 µM
Ki [1]: 54.9 ± 7.2 µM
